From publication PMC4336329 (PLoS ONE, 2015)
The whole screen tested about 310,000 compounds, of which about 14,000 (4.5%) showed an effect of 50% or more. The effect is printed as a negative number. The list shows a part of the results.

target: human ether-à-go-go-related gene (hERG) potassium channel (human, UniProt Q12809); test: primary screen, population patch clamp on CHO cells stably expressing hERG
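Note: peak tail current of the secondary pulse compared with the same well before compound.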

Chain of human ether-à-go-go-related gene (hERG) potassium channel (Q12809 whole entry, looked up): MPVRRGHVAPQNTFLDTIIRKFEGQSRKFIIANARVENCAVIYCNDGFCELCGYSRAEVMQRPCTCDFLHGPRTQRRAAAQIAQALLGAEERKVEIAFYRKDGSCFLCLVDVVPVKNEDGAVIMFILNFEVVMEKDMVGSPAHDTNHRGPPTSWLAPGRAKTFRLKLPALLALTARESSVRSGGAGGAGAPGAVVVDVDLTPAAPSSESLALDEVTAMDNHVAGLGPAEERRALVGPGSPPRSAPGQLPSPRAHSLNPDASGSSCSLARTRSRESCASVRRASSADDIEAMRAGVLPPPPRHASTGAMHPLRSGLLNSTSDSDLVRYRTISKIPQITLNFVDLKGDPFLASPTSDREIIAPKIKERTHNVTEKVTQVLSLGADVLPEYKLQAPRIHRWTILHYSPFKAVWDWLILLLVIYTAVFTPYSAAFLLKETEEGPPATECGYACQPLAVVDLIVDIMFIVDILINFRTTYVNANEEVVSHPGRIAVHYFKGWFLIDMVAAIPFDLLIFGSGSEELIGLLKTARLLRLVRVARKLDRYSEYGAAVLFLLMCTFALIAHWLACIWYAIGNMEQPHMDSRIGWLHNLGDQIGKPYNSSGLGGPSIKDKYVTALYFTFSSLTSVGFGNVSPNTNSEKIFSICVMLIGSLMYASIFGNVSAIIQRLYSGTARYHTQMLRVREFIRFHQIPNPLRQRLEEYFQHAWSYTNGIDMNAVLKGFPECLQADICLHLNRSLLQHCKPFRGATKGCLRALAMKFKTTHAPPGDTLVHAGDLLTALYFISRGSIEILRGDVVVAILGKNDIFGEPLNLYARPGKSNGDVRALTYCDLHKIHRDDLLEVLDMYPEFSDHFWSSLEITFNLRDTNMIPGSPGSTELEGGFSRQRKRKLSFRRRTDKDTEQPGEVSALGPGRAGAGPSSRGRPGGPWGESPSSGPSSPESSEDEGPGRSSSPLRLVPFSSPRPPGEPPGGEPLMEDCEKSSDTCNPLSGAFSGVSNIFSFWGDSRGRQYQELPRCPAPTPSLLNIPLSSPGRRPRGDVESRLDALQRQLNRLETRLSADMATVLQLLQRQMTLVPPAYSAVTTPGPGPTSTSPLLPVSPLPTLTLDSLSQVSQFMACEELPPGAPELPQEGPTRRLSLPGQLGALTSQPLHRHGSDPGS

Compound	hERG current change (%, negative = inhibition) at 10uM [%]
COc1ccccc1C(=O)Nc1ccc2nc3n(c(=O)c2c1)CCCC3	-36.3
COc1cc(NC(=O)CSc2nnc(-c3ccncc3)o2)cc(OC)c1OC	22.4
S=c1nc2ccccc2c2nc(-c3ccccc3Cl)[nH]n12	19.2
Cc1nnc(NC(=O)CSc2nc3ccccc3o2)s1	25.2
COc1ccc(C(O)C(CC(=O)NCCCOC(C)C)C(=O)NCCCOC(C)C)cc1OC (stereo not drawn)	11
Oc1cccc2ccc(/C=C/c3ccccc3Br)nc12	25.3
O=c1cc(CN2CCCCC2)nc(C2CC2)[nH]1	-2.2
Cc1cc(NC(=O)c2c(Cl)cnn2C)no1	8
CCOC(=O)C1=C(CSc2n[nH]c(N)n2)NC(=O)NC1C (stereo not drawn)	3.79
CC12CN3CC(C)(CN(C1)C31CCSCC1)C2=O	16.3
COC(=O)C1=C2SC(C)C(=O)N2C(N)=C(C#N)C1c1ccc(OC)c(OC)c1 (stereo not drawn)	-17.2
COc1ccc(CNC(=O)c2cccc(NC3=NC4CS(=O)(=O)CC4S3)c2)cc1 (stereo not drawn)	6.27
COCCOc1ccc(C(F)(F)F)cc1NC(=O)COC(=O)c1cc[n+]([O-])cc1	-34.7
COc1ccc(C(=O)NCc2c(CC(C)C)oc(C)c2C(=O)O)cc1	7.66
Cc1cc(O)cc(O)c1-c1onc(C(F)(F)F)c1-c1cscn1	7.85
Cc1ccc(Cl)cc1-n1ncc2c(NNC(=O)c3ccco3)ncnc21	3.6
Cc1nonc1OC(C)CNc1ccc([N+](=O)[O-])cc1 (stereo not drawn)	-58.7
CCCNS(=O)(=O)c1ccc(N2CCCC2=O)c([N+](=O)[O-])c1	1.22
COc1cccc2cc(C(=O)NCCN3CCOCC3)oc12	15.4
CC(=O)Nc1ccc(NC(=O)c2cc(-c3ccc(C)cc3O)n[nH]2)cc1	19.3
O=C(CCN1C(=O)C2C3C=CC(C3)C2C1=O)N1CCN(c2ccccc2F)CC1 (stereo not drawn)	-4.87
O=C(NCCc1ccccc1Cl)C1CC(=O)N(C2CCCCC2)C1 (stereo not drawn)	-4.43
COC(=O)c1ccc(CNC(=O)COC(=O)Cc2ccsc2)cc1	-6.64

Compound	hERG current change (%, negative = inhibition) at 10uM [%]
CCC1CCCCN1CCCNC(=O)c1ccc(N2CCOCC2)c(NS(=O)(=O)c2ccc(OC)cc2)c1 (stereo not drawn)	-57.6
COc1c(F)c(F)c(C(=O)O)c(Nc2ccccc2)c1F	-3.79
O=C(/C=C/c1ccccc1[N+](=O)[O-])NCc1ccc(Cl)cc1	4.15
CCSc1nnc(NC(=O)C(C(F)(F)F)C(F)(F)F)s1	-3.7
Cc1cccn2c(=O)nc(SCC(=O)NCc3ccc(F)cc3)nc12	-26.1
Cc1cc(O)ccc1NS(=O)(=O)c1ccc2c3c(cccc13)C(=O)N2	-14.6
CCOc1ccc(Nc2cc(C)nc(N3CCOCC3)n2)cc1	0.875
Cn1c(SCc2c(F)cccc2Cl)nnc1-c1cccs1	-30.8
CCOC(=O)C1(CCc2ccccc2)CCN(Cc2c(O)cccc2OC)CC1	-95.1
CCC(=O)N(Cc1cc2cc(OC)ccc2[nH]c1=O)c1ccccc1C	-4.22
CCOC(=O)/C=C/c1ccc2c(c1)S(=O)(=O)N(Cc1ccc(OC)cc1)[C@H]2CC(=O)OCC	-18.2
CC1=CC(C)C(C[N+]2(C)CCCCC2)C(C)C1.[I-] (stereo not drawn)	15.5
CCCCN(C)C(=O)Cn1c(=O)oc2cc(S(=O)(=O)N3CC(C)CC(C)C3)ccc21 (stereo not drawn)	-21.2
Cc1ccc(N2CC(C(=O)NCCN3CCOCC3)CC2=O)cc1 (stereo not drawn)	8.92
CCN1CCN(CCCN(Cc2ccco2)C(=S)Nc2ccc(C)c(Cl)c2)CC1	-64.8
COCCn1c(Cc2ccccc2)nnc1SCC(=O)Nc1ccccc1	5.83
CCN1CCCC1CNC(=O)c1cc([N+](=O)[O-])c(N(C)C)cc1OC (stereo not drawn)	-1.67
O=C1OCCC1N1C(=O)c2ccccc2S1(=O)=O (stereo not drawn)	-12
CSc1cc(-c2ccccc2)[nH]c(=O)c1C#N	6.16
O=C(NC(=S)Nc1ccc(O)cc1)C1CCCC1	16.5
CCOC(=O)c1c(NC(=O)CSc2nnc(Cc3ccccc3)o2)sc(C)c1C	13.8
O=C(COC(=O)/C=C/c1ccc(S(=O)(=O)N2CCOCC2)cc1)NCc1ccccc1	-8.44
COc1ccc(CNS(=O)(=O)c2cc(Br)cc3c2N(C(C)=O)C(C)C3)cc1 (stereo not drawn)	-40.9

Compound	hERG current change (%, negative = inhibition) at 10uM [%]
CC(=O)c1ccc(NC(=O)c2ccc3nc(-c4ccco4)c(-c4ccco4)nc3c2)cc1	-0.276
O=C(Nc1ccc(-c2csc(Nc3ccc(Cl)cc3)n2)cc1)c1cccc(C(F)(F)F)c1	17.4
Cn1ccnc1SCC(=O)Nc1sccc1C#N	0.227
O=[N+]([O-])c1cccc(-c2noc(COc3ccccc3)n2)c1	21
O=C(c1ccc2c(=O)n(Cc3ccccc3)c(=S)[nH]c2c1)N1CCCC1	20.4
O=C(Cn1ncc(Cl)c(Cl)c1=O)NC1CCCCC1	-41.2
CCOc1ccc(NS(=O)(=O)c2cc(C(=O)N3CCN(C(C)=O)CC3)ccc2Cl)cc1	12.6
Cn1c(=O)n(C)c2cc(CN3C(=O)OC(C)(C)C3(C)O)ccc21 (stereo not drawn)	5.82
S=C(Nc1cccnc1)NC1CC2CCC1C2 (stereo not drawn)	17.9
CCCCOc1ccc(C(=O)Nc2cc(C)c(OCC(=O)N3CCOCC3)c(C)c2)cc1	-24.8
Cc1ccc(CNC(=O)c2ccc(CS(=O)Cc3ccccc3Cl)o2)cc1 (stereo not drawn)	-8.39
CCOc1ccc(NC(=O)c2cnc3scc(C)n3c2=O)cc1	-4.9
c1ccc(C[C@H]2CNCCN2CC2(c3ccccc3)CC2)cc1	-14.9
Cc1ccc(NC(=O)Nc2ccc3c(c2)OCO3)c(OC(F)F)c1	-6.73
C=CCn1c(SCC(=O)Nc2nc(C)cs2)nnc1C(NC(=O)c1ccccc1)C(C)C (stereo not drawn)	-9.2
OC(c1cc(-c2ccc(C(F)(F)F)cc2)nc(C(F)(F)F)c1)C1CCCCN1 (stereo not drawn)	11.8
COc1cccc(CNC(=O)CCC2CCCN(Cc3ccc4c(c3)CCO4)C2)c1 (stereo not drawn)	-33.6
CCOc1ccccc1NC(=O)Cc1cccs1	3.18
Cc1ccc(Sc2ncccc2C(=O)NCc2cc([N+](=O)[O-])ccc2O)cc1C	9.22
COc1ccc(C(=O)Nc2ccc(C(=O)OCC(=O)c3ccccc3)cc2)cc1	3.97
CC1CCN(C(=O)C2CCN(S(=O)(=O)c3cc(Cl)ccc3Cl)CC2)CC1	-38
O=C(Nc1ccc(F)cc1)c1cc(S(=O)(=O)N2CCCCC2)ccc1F	-4.19
COc1ccccc1CNC(=O)c1csc2c1CCCC2	2.46

Compound	hERG current change (%, negative = inhibition) at 10uM [%]
CC(=O)c1cccc(NC(=O)COC(=O)c2ccc3c(c2)OCCO3)c1	-1.54
Cc1ccccc1OCCOCCN1CCCCCC1.O=C(O)C(=O)O	-29.3
Cc1c(C(=O)N2CCCCC2)c(S(=O)(=O)NCCc2ccccc2)c(C)n1C	10.5
COC(=O)c1nnn(Cc2ccccc2)c1N	14.4
Nc1cc(=O)[nH]c(SCc2nnnn2-c2ccc(Cl)cc2)n1	4.04
CCC(CC)c1nnc(NC(=O)c2cccc(S(=O)(=O)N3CCc4ccccc43)c2)s1	8.7
C=CCOc1ccc2ccccc2c1CNn1cn[nH]c1=S	-8.17
COc1cccc(C(=O)N2CCN(c3ccccn3)CC2)c1	1.21
Cc1cc(C)cc(-n2ncc3c2CCCC3NC(=O)c2csnn2)c1 (stereo not drawn)	-110
CC(=O)Nc1ccc2c(c1)nc(CCN1CCN(c3ccccn3)CC1)n2C	18.6
COc1ccc(-n2c(C)cc(C(=O)COC(=O)c3cc(OC)c(OC)cc3NC(=O)c3cccs3)c2C)cc1	14.4
COc1ccccc1NC(=O)Nc1nnc(CC(=O)Nc2ccccc2)s1	-8.21
O/N=C/c1c[nH]c2ccccc12	5.61
Cc1cccc(-c2noc(CN(C(=O)c3ccc4c(c3)OCO4)C(C)C)n2)c1	-14.5
Cc1cccc(C(=O)NC(=S)NNC(=O)c2ccccc2Cl)c1	29.8
COc1ccc(-n2c(COc3ccccc3)n[nH]c2=S)cc1	19.6
CCCCN1CC[C@H]2C=CC[C@@H](C(=O)Nc3ccccc3)[C@H]2C1=O	-13.1
CN(C)CCCN=Cc1c(O)n(Cc2ccccc2)c(=O)c2ccccc12	-64.5
COc1cc2ncnc(NCc3ccc(F)cc3)c2cc1OC	-52.5
O=C(Nc1cccc(F)c1)C1CCN(C(=O)Cc2ccccc2)CC1	-7.55
O=C(COC(=O)Cc1ccccc1[N+](=O)[O-])NCc1ccccc1Cl	3.36
